To fix the notation:
B1: OR4K15 (parent)
chain: GUUAACGGUCAUAGGCCAUGGAAACUAGGAGCACCAUUUCGCUGCCAGUGAAGAAAUGAACAAAGAAAAUCUGGGCCAGGCAGGCAUCAAAAGAAAUAGUCUUGCGCUCAACCAGAAAGUCUGUAAUCAUUUUAAGGGUA

Read counts are not given, so values of variants with three or more changes are uncertain.

Variants of B1 are the subject of this data set. Put plainly: self-cleavage, relative activity (ratio to wild type); higher = more cleavage; in vitro, sequencing; the parent is a self-cleaving ribozyme.
GUUAACGGUCAUAGGCCACGGAAACUAGGAGCACCAUUUCGCUGCCAGUGAAGAAAUGACCAAAGAAAAUCUGCGCCAGGCAGGCAUCAAAAGAAAUAGUCUUGCGCUCAACCAGAAAGUCUGUAAUCACUUUAAGGGUA: the self-cleavage is 0.15.

GUUAACGGUCAUAGGCCACGGAAACUAGGAGCACCAUUUCGCUGCCAGUGAAGAAAUGAACAAUGAAAAUCUGGGCCAGGCAGGCGUCAAAAGAAAUAGUCUUGCGCUCAACCAGAAAGUCUGUAAUCAUUUUAAGGGUA: the self-cleavage was 0.83.

For GUUAACGGUCAUAGGCCACGGAAACUAGGAGCACCAUUUCGCUGCCUGUGGAGAAAUGAACAAAGAAAAUCUGGGCCAGGCAGGCAUCAAAAGAAAUAGUCUUGCGCUCAACCAGAACGUCUGUAAUCAUUUUAAGGGUA, the self-cleavage turned out to be 0.7. The result for GUUAACGGUCAUAGGCCACGGAAACUAGGAGCACCAUUUCGCUGCCAGUGAAGAAGAGAACAAAGAAAAUCUGGGCCAGGCAGGCAUCAAAAGAAAUAGUCUUGCGCUCAACCAGGAAGUCUGUAAUCAUUUUAAGGGUA reads 0.96; that for GUUAACGGUCAUAGGCCACGGAAACUAGGAGCACCAUUUCGCUGCCAGUGAAGAAAUGAGCAAAGAUAAUCUGGGCCAGGCAGGCAUCAAAAGAAAUAGUCUUGCGCUCAACCUGAAAGUCUGUAAUCAUUUUAAGGGUA, 0.21.

Take GUUAACGGUCAUAGGCCACGGAAACUAGGAGCACCAUUUCGCUGCCAGUGGAGAAAUGAACAAAGAAAAUCUGGGCCAGGCAGGCAUCAAAAGAAAUAGUCUUGCGCUCAACCAGAAAGUCUGUAAUCAUUAUAAGGGUA: the self-cleavage came out at 1.01.

For GUUAACGGUCAUAGGCCACGGAAACUAGGAGCACCAUUUCGCUGCCAGUGAAGAAAUGAACAAAGAGAAUCUGGGCCAGGCAGGCAUCGAAAGAAAUAGUCUUGCGCUCAACCAGAAAGUCUGUAAUCAUUUUAAGGGUA, the self-cleavage was found to be 1.06. The result for GUUAACGGUCAUAGGCCACGGAAACUAGGAGCACCAUUUCGCUGCCAGUGAAGAAAUGGACAAAGAAGAUCUGGGCCAGGCAGGCAUCAAAAGUAAUAGUCUUGCGCUCAACCAGGAAGUCUGUAAUCAUUUUAAGGGUA reads 0.68; that for GUUAACGGUCAUAGGCCACGGAAACUAGGAGCACCAUUUCGCUGCCAGUGAAGAAAUGAACAAAGGAAAUCUGGGCCAGGAAGGCAUCAAAAGAAAUAGUCUUGCGCUCAACCAGAAAGUCUGCAAUCAUUUUAAGGGUA, 0.16; that for GUUAACGGUCAUAGGCCACGGAAACUAGGAGCACCAUUUCGCUGCCAGUGAAGAAAUGAGCAAAGAAAAUCUGGGCCAGGCAGGCAUCAAAAGAAAUAGUCUUGCGCCCAACCAGAAAGUCUGUAAUCAUUUUAAGGGUA, 0.04.

Turning to GUUAACGGUCAUAGGCCACGGAAACUAGGAGCACCAUUUCGCUGCCAGUGAAGAAAUGAACGAGGAAAAUCUGGGCCAGGCAGGCGUCAAAAGAAAUAGUCUUGCGCUCAACCAGAAAGUCUGUAAUCAUUUUAAGGGUA, the self-cleavage came out at 0.84. Take GUUAACGGUCAUAGGCCACGGAAACUAGGAGCACCAUUUCGCUGCCAGUGAAGAAAUGAACAAAGGAAAUCUGGGCCAGGCAGGCAUCAAAAGAAAUAGUCUUGCGCUCUACCAGAAAGUCUGUAAUCAUUUUAAGGGUA: the self-cleavage was 0.34. Turning to GUUAACGGUCAUAGGCCACGGAAACUAGGAGCACCAUUUCGCUGCCAGUGAAGAGAUGAACAAAGAAAAUCUGGGCCAGGCAGGCAUCAAAAGAAAUAGUCUUGCGCUCAACCAGAAAGUCUGUAACCAUUUUAAGGGUA, the self-cleavage turned out to be 0.37. Take GUUAACGGUCAUAGGCCACGGAAACUAGGAGCACCGUUUCGCUGCCGGUGAAGAAAUGAACGAAGAAAAUCUGGGCCAGGCAGGCAUCAAAAGAAAUAGUCUUGCGCUCAACCAGAAAGUCUGUAAUCAUUUUAAGGGUA: the self-cleavage was 1.53. To GUUAACGGUCAUAGGCCACGGAAACUAGGAGCACCAUUUCGCUGCCAGUGAAGAAAUGAACAGAGAAAAUCUGGGCCAGGCAGGCAUCAAAAGAAAUAGUCUUGCGCUCAGCCAGAAAGUCUGUAAUCAUUUUAAGGGUA belongs 0.04; to GUUAACGGUCAUAGGCCACGGAAACUAGGAGCACCAUUUCGCUGCCAGUGAAGGAACGAACAAAGAAAAUCUGGGCCAGGCAGGCAUCAAAAGAAAUAGUCUUGCGCUCAACCAGAAAGUCUGUAAUCAUUUUAAGGGUA, 0.25; to GUUAACGGUCAUAGGCCACGGAAACUAGGAGCACCAUUUCGCUGCCGGUGAAGAAAUGAACAAAGAAAAUCUGUGCCAGGCAGGCAUCAAAAGAAAUAGUCUUGCGCUCAACCAGAAAGUCUGUAAUCAUUUUAAGGGUA, 0.2. To GUUAACGGUCAUAGGCCACGGAAACUAGGAGCACCAUUUCGCUGCCAGUGAAGAAGUGAACAAAGAAAAUCUGGGCCAGGCAGGCAUCUGAAGAAAUAGUCUUGCGCUCAAGCAGAAAGUCUGUAGUCAUUUUAAGGGUA belongs 0. The result for GUUAACGGUCAUAGGCCACGGAAACUAGGAGCACCAUUUCGCUGCCAGUGAAGGAAUGAACAAAGAAAAUCUGGGCCAGGCAGGCAUCAAGAGAAAUAGUCUUGCGCUCAACCAGAUAGUCUGUAAUCAUUUUAAGGGUA reads 0.63; that for GUUAACGGUCAUAGGCCACGGAAACUAGGAGCACCAUUUCGCUGCCAGUGAAGAAAUGAACAGAGAAAAUCUGGGCCAGGCAGGCGUCAAAAGAAAUAGUCUUGCGCUCAACCAGAAGGUCUGUAAUCAUUUUAAGGGUA, 1.31.
